These are yes or no findings as the source states them, for the method shown. Binding seen in cells or lysates may run through a third protein. Some binding calls cover weakened binding; strength is not graded here.
How the values were obtained:
[1] = target: VSV-G tagged Δ1-570 Grp94 polypeptide (N-terminal deleted Grp94, AA 571–782) (UniProt P14625); test: co-IP; anti-VSV-G P5D4 on lysate of C2C12 cells transfected or not with plasmid pVSV-G6B (ΔGrp94); blots with anti-SERCA2, anti-Grp94 and anti-VSV-G
[2] = target: Grp94/gp96 (endoplasmic reticulum chaperone), endogenous in C2C12 cells (mouse (endogenous in C2C12)) (UniProt P08113); test: co-IP; anti-Grp94 3C4 on lysate of C2C12 cells exposed 16 h to 10 uM L-NNA and lysed in the presence of the inhibitor
[3] = target: Grp94/gp96 (endoplasmic reticulum chaperone), endogenous in C2C12 cells (mouse (endogenous in C2C12)) (UniProt P08113); test: co-IP; anti-Grp94 3c4 (2 ug) on about 100 ug C2C12 lysate in RIPA buffer, anti-mouse Ig agarose beads, Western blot; non-immune mouse IgG as control; untreated cells
[4] = target: Grp94/gp96 (endoplasmic reticulum chaperone), endogenous in C2C12 cells (mouse (endogenous in C2C12)) (UniProt P08113); test: co-IP; anti-Grp94 3c4 on C2C12 lysate in RIPA buffer after cross-linking of the culture with DSP (200 ug/mL, 5 min, room temperature); linker cleaved before SDS-PAGE

By UniProt entry, the sequences of proteins in these tests, tags left out. Where a name states a change or a piece, a line headed by the entry shows the natural chain unless it says otherwise. Residues count along the entry.
UniProt P14625, residues 592-803: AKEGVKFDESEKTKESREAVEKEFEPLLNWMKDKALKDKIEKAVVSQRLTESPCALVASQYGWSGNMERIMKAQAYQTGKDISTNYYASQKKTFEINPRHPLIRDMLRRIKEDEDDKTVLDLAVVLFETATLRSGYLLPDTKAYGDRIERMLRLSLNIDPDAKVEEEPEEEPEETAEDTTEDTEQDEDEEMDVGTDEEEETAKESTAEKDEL
UniProt P08113, residues 22-802: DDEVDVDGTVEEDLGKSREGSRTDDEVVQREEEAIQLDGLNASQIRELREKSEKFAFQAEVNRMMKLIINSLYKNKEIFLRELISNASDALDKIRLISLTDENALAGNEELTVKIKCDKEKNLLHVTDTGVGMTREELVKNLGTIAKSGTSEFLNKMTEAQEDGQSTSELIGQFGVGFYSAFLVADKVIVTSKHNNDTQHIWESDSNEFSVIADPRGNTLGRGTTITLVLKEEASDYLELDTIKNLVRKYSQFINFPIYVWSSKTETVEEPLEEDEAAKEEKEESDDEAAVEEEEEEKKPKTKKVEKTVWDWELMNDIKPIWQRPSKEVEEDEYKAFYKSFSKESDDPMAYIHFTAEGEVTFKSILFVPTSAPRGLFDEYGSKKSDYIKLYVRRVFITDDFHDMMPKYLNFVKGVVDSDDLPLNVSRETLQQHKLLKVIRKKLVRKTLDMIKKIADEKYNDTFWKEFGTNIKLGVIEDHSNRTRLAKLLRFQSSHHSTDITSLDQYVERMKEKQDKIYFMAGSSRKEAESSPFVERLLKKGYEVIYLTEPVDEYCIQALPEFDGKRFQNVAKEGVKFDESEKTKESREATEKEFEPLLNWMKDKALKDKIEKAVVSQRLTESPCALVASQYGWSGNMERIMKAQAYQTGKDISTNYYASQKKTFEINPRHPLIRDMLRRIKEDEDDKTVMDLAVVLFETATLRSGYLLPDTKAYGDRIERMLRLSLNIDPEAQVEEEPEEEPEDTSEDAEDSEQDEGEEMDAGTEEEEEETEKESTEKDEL
UniProt O55143: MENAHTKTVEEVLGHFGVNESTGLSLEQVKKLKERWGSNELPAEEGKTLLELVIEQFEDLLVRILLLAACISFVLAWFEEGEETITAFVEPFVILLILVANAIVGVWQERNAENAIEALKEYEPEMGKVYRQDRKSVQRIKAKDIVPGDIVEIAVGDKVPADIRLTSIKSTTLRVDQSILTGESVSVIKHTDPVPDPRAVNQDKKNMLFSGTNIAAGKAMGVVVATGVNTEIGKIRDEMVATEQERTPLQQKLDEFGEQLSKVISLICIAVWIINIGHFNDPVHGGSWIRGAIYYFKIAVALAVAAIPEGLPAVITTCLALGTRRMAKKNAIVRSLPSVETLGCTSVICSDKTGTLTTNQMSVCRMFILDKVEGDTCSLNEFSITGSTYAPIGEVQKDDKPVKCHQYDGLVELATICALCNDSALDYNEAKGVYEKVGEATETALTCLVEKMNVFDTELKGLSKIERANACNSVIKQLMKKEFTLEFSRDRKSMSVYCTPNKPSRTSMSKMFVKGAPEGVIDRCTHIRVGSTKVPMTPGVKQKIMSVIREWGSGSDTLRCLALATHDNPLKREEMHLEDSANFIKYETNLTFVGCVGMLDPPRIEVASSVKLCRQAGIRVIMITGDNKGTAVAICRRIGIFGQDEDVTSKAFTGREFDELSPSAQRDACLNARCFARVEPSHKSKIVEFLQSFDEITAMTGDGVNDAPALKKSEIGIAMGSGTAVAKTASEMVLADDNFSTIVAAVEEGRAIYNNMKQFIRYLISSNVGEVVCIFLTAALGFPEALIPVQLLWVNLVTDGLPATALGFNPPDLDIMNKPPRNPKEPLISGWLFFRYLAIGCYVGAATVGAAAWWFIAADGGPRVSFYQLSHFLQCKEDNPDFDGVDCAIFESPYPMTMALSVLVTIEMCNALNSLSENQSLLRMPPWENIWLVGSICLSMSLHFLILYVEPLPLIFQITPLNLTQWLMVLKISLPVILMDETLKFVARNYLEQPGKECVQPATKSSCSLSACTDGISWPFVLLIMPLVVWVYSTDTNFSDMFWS
UniProt P14211, residues 18-416: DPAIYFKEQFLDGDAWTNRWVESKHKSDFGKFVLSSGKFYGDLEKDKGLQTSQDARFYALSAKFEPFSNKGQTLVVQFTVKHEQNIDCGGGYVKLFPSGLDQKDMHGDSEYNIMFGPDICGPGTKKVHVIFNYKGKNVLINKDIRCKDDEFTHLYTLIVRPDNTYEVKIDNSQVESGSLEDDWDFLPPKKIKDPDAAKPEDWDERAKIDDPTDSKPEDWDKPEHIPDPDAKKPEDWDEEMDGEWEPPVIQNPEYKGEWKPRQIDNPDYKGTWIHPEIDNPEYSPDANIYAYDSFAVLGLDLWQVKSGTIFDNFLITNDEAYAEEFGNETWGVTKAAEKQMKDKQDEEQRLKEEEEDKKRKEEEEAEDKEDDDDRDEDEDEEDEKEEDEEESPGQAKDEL
UniProt Q9Z0J4: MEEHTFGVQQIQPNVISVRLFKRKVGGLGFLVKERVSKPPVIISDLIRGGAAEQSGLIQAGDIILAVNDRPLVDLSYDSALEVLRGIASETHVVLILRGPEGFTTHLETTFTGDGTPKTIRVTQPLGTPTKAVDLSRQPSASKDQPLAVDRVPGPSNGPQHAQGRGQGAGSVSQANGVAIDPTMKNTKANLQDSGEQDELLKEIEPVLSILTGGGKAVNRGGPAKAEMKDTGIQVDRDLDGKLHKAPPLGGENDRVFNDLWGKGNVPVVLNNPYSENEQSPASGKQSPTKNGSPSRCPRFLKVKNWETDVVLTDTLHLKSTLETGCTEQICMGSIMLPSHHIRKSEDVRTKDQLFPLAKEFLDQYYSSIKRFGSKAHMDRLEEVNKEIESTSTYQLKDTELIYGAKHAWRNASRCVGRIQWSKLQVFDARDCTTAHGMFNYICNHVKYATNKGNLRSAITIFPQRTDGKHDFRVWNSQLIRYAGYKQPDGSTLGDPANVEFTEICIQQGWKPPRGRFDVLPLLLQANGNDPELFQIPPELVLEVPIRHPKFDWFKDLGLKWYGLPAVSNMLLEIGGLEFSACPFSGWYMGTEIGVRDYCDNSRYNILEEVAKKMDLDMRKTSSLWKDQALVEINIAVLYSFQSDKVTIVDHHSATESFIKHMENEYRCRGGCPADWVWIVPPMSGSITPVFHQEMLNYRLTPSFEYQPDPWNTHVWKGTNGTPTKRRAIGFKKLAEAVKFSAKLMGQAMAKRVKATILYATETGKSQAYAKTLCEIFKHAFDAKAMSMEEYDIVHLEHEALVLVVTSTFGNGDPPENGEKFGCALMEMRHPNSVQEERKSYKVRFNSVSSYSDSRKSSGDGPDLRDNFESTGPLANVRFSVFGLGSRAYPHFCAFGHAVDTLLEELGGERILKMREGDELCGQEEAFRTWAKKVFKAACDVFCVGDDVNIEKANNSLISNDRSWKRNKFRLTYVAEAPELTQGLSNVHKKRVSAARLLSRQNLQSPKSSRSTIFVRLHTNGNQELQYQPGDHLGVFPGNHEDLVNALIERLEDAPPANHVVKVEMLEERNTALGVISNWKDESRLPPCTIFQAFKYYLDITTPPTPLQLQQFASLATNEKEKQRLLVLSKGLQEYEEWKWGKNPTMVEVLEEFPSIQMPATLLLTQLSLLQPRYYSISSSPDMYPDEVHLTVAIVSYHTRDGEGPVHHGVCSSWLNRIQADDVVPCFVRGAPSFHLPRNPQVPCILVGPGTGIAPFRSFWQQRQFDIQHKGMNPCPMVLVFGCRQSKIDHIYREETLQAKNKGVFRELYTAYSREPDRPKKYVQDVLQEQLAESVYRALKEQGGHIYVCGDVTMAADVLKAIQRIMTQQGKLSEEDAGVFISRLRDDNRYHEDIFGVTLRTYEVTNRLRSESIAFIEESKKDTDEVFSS

Row | binding [1] | binding [3] | binding [4] | Substance | binding [2]
1 | no binding | – | – | Grp94/gp96 (endoplasmic reticulum chaperone), endogenous in C2C12 cells (from UniProt P08113 22-802) | –
2 | binds | binds | – | SERCA2, endogenous in C2C12 cells (from UniProt O55143 1-1044) | no binding (condition: cells exposed 16 h to 10 uM L-NNA)
3 | – | – | no binding | calreticulin, endogenous in C2C12 cells (from UniProt P14211 18-416) | –
4 | – | binds | – | nNOS, endogenous in C2C12 cells (from UniProt Q9Z0J4 1-1429) (enzyme) | no binding (condition: cells exposed 16 h to 10 uM L-NNA)

Reference: paper PMC8954037
